Measured values as given in a collection of fitness landscapes (doi:10.1016/j.celrep.2020.107928).
Whole data set: some 81,000 sequences, median “one-hybrid fitness for binding NBS DNA” near -0.1, cut for the highest 2% near 0.36. Some of the results follow.

B1: Caulobacter ParB omega fusion; a variant is named by its letters at X, in order, B8GW30 (parent)
chain: MESVVVGEPGMSEGRRGLGRGLSALLGEVDAAPAQAPGEQLGGSREAPIEILQRNPDQPRRTFREEDLEDLSNSIREKGVLQPILVRPSPDTAGEYQIVAGERAWRAAQRAGLKTVPIMVRELDDLAVLEIGIIENVQRADLNVLEEALSYKVLMEKFERTQENIAQTIGKSXSHVANXMRLLXLPDEVQSYLVSGELTAXHARAIAAAADPVALAKQIIEGGLSVRETEALARKAPNLSAGKSKGGRPPRVKDTDTQALESDLSSVLGLDVSIDHRGSTGTLTITYATLEQLDDLCNRLTRGI

Variants of: B1
Assay: one-hybrid fitness for binding NBS DNA (the Noc-binding site; scaled: cognate 1, non-cognate 0); higher = stronger binding
Conditions: with NBS DNA site
Method in brief: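 Selection: bacterial one-hybrid in E. coli USO, HIS3 reporter with the site 19 bp from the promoter, 48 hours at 37°C on M9-minus-histidine plus 0.1 mM IPTG and 5 mM 3-AT. Libraries were Caulobacter ParB with four randomised specificity codons, sequenced on Illumina before and after selection. Fitness is the rescaled log change in variant-to-wild-type read ratio, anchored to the cognate and non-cognate sites.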

Variant	one-hybrid fitness for binding NBS DNA
YPSD	≤ 0.2
SSRC	≤ 0.2
ISPK	≤ 0.2
GAVR	≤ 0.2
KKGD	≤ 0.2
NVCW	≤ 0.2
LWPR	≤ 0.2
VAPY	≤ 0.2
KISD	≤ 0.2
NACT	≤ 0.2
HCLQ	≤ 0.2
EKGR	≤ 0.2
SCSF	≤ 0.2
LSHN	≤ 0.2
RPQW	≤ 0.2
CPTK	≤ 0.2
VGHH	≤ 0.2
PSLR	≤ 0.2
HYVE	≤ 0.2
DYSR	≤ 0.2
HRNC	≤ 0.2
TCRM	≤ 0.2
GIYR	≤ 0.2
AMYG	≤ 0.2

Variant	one-hybrid fitness for binding NBS DNA
CKKV	≤ 0.2
SWSS	≤ 0.2
QAMV	≤ 0.2
VLLY	≤ 0.2
KAIT	≤ 0.2
YTPC	≤ 0.2
AMFN	≤ 0.2
WKIS	≤ 0.2
WKDG	≤ 0.2
VYWG	≤ 0.2
RMMK	≤ 0.2
EQWS	≤ 0.2
QIWP	≤ 0.2
IYGT	≤ 0.2
VKAC	≤ 0.2
IGLW	≤ 0.2
NFGR	≤ 0.2
MADF	≤ 0.2
SNGQ	≤ 0.2
RINY	≤ 0.2
TRPC	≤ 0.2
QNRL	≤ 0.2
KIRC	≤ 0.2
KRHW	≤ 0.2

Variant	one-hybrid fitness for binding NBS DNA
AIIY	≤ 0.2
EMMY	≤ 0.2
VTFS	≤ 0.2
SMKH	≤ 0.2
GTVD	≤ 0.2
HERS	≤ 0.2
RTLD	≤ 0.2
IHWG	≤ 0.2
GACL	≤ 0.2
MLCF	≤ 0.2
LCWT	≤ 0.2
FNDL	≤ 0.2
VRRY	≤ 0.2
AMCR	≤ 0.2
TTQL	≤ 0.2
YMFG	≤ 0.2
RNQT	≤ 0.2
YQQG	≤ 0.2
IGPM	≤ 0.2
PPPD	≤ 0.2
MEYT	≤ 0.2
DAKG	≤ 0.2
LRWC	≤ 0.2
YYER	≤ 0.2

Variant	one-hybrid fitness for binding NBS DNA
WKER	≤ 0.2
RGKT	0.24
THFE	≤ 0.2
PPTG	≤ 0.2
GCMC	≤ 0.2
LGKY	≤ 0.2
FMVG	≤ 0.2
NYTW	≤ 0.2
WQTA	≤ 0.2
CSDA	≤ 0.2
LKVQ	≤ 0.2
LDRY	≤ 0.2
DCIG	≤ 0.2
YSPL	≤ 0.2
LPKF	≤ 0.2
IACN	≤ 0.2
WNLY	≤ 0.2
MIYW	≤ 0.2
ECHV	≤ 0.2
ATAG	≤ 0.2
QVQC	≤ 0.2
ADVN	≤ 0.2
TEYY	≤ 0.2
PRQA	≤ 0.2

Variant	one-hybrid fitness for binding NBS DNA
LRPL	≤ 0.2
VFVQ	≤ 0.2
GPQK	≤ 0.2
ATKI	≤ 0.2
FCIV	≤ 0.2
NCSD	≤ 0.2
MAIA	≤ 0.2
ERSS	≤ 0.2
NADD	≤ 0.2
DGMR	≤ 0.2
RQTN	≤ 0.2
KVAV	≤ 0.2
CSKY	≤ 0.2
TAPH	≤ 0.2
TSCN	≤ 0.2
MPIL	≤ 0.2
TSKV	≤ 0.2
WSPY	≤ 0.2
MQPR	≤ 0.2
SCHC	≤ 0.2
GSVE	≤ 0.2
QHAY	≤ 0.2
MSPT	≤ 0.2
PVRL	≤ 0.2

Variant	one-hybrid fitness for binding NBS DNA
YDNV	≤ 0.2
HSVC	≤ 0.2
PMRA	≤ 0.2
LYGG	≤ 0.2
RGDN	≤ 0.2
LGIF	≤ 0.2
YLGR	≤ 0.2
RDVC	≤ 0.2
YDPL	≤ 0.2
CGRF	≤ 0.2
DHCF	≤ 0.2
SASD	≤ 0.2
NAKQ	≤ 0.2
QWRS	≤ 0.2
CEVT	≤ 0.2
PERE	≤ 0.2
WKLW	≤ 0.2
YHLR	≤ 0.2
HSKN	≤ 0.2
QGVS	≤ 0.2
NTWG	≤ 0.2
RHHQ	≤ 0.2
KTKS	0.29
ILYC	≤ 0.2

Variant	one-hybrid fitness for binding NBS DNA
SYIV	≤ 0.2
LKPE	≤ 0.2
LALP	≤ 0.2
PGNC	≤ 0.2
NKLS	≤ 0.2
PYAS	≤ 0.2
WQAR	≤ 0.2
YRHW	≤ 0.2
DCDD	≤ 0.2
VAFA	≤ 0.2
TFGC	≤ 0.2
RNEC	≤ 0.2
RKYY	≤ 0.2
CHHF	≤ 0.2
WRVA	≤ 0.2
CREE	≤ 0.2
TCEG	≤ 0.2
NFHF	≤ 0.2
NHLA	≤ 0.2
TDDD	≤ 0.2
VVAG	≤ 0.2
RGGL	≤ 0.2
PVWW	≤ 0.2
RFDN	≤ 0.2

Variant	one-hybrid fitness for binding NBS DNA
PKQR	≤ 0.2
NCVD	≤ 0.2
KWMG	≤ 0.2
LPTV	≤ 0.2
LLIT	≤ 0.2
GDNI	≤ 0.2
RLTN	≤ 0.2
TRMG	≤ 0.2
LATW	≤ 0.2
VVVF	≤ 0.2
KDHR	≤ 0.2
FPCC	≤ 0.2
LRAS	≤ 0.2
CNTV	≤ 0.2
PEVR	≤ 0.2
RWCD	≤ 0.2
DPWS	≤ 0.2
RHSH	≤ 0.2
MDNG	≤ 0.2
IAPH	≤ 0.2
ALEW	≤ 0.2
PYAT	≤ 0.2
WRKG	≤ 0.2
EAVG	≤ 0.2

Variant	one-hybrid fitness for binding NBS DNA
QVFG	≤ 0.2
GVNT	≤ 0.2
WTLN	≤ 0.2
TGTR	≤ 0.2
APPD	≤ 0.2
VLGG	≤ 0.2
PFHL	≤ 0.2
KNFR	≤ 0.2
VDYV	≤ 0.2
LKQG	≤ 0.2
ECYC	≤ 0.2
DVPC	≤ 0.2
CFES	≤ 0.2
SDIS	≤ 0.2
SQAE	≤ 0.2
HKRQ	≤ 0.2
VTCL	≤ 0.2
VLAY	≤ 0.2
WPES	≤ 0.2
WTVC	≤ 0.2
MACA	≤ 0.2
WPQC	≤ 0.2
LGSF	≤ 0.2
ICRT	≤ 0.2

Variant	one-hybrid fitness for binding NBS DNA
PGSW	≤ 0.2
ECGS	≤ 0.2
SLDT	≤ 0.2
VWSR	≤ 0.2
GAMW	≤ 0.2
MQCS	≤ 0.2
ACHH	≤ 0.2
SMAR	≤ 0.2
HGAN	≤ 0.2
KWHC	≤ 0.2
YGSW	≤ 0.2
EKYT	≤ 0.2
IYHW	≤ 0.2
HPPD	≤ 0.2
VSPD	≤ 0.2
NEAL	≤ 0.2
NLRC	≤ 0.2
FSLF	≤ 0.2
RGQA	≤ 0.2
QVYG	≤ 0.2
QQHS	0.476
QGII	≤ 0.2
CAWG	≤ 0.2
IFNC	≤ 0.2

Variant	one-hybrid fitness for binding NBS DNA
QQYT	0.473
TMRG	≤ 0.2
RKFS	0.435
HYMY	≤ 0.2
LDAF	≤ 0.2
NLCV	≤ 0.2
LDVT	≤ 0.2
QNYY	≤ 0.2
VPFS	≤ 0.2
DRFN	≤ 0.2
QCRA	0.658
NETK	≤ 0.2
YQSD	≤ 0.2
AFSL	≤ 0.2
RSAK	≤ 0.2
CRPA	≤ 0.2
RITA	≤ 0.2
LPIY	≤ 0.2
QLAF	≤ 0.2
RIES	≤ 0.2
TYNC	≤ 0.2
SMFC	≤ 0.2
KERT	≤ 0.2
DWHY	≤ 0.2

Variant	one-hybrid fitness for binding NBS DNA
AFNG	≤ 0.2
YRLD	≤ 0.2
KLAV	≤ 0.2
ASSC	≤ 0.2
TCNW	≤ 0.2
RTMN	≤ 0.2
KHPR	≤ 0.2
RVTR	0.429
RMSP	≤ 0.2
QCMT	0.477
RKNC	0.281
LVYY	≤ 0.2
GLCG	≤ 0.2
FEKL	≤ 0.2
QDST	≤ 0.2
DFNL	≤ 0.2
LGQV	≤ 0.2
VLQN	≤ 0.2
QLIC	≤ 0.2
RACH	≤ 0.2
NNNR	≤ 0.2
TETI	≤ 0.2
FCHS	≤ 0.2
QLRE	≤ 0.2

Variant	one-hybrid fitness for binding NBS DNA
TADK	≤ 0.2
VQYD	≤ 0.2
LFYN	≤ 0.2
MPAI	≤ 0.2
HMSS	≤ 0.2
NGCC	≤ 0.2
DLNM	≤ 0.2
TEEG	≤ 0.2
FMSD	≤ 0.2
QEEP	≤ 0.2
AGVT	≤ 0.2
SDSS	≤ 0.2
LYTW	≤ 0.2
LFFK	≤ 0.2
VLAH	≤ 0.2
LTGM	≤ 0.2
GKDS	≤ 0.2
QMHL	≤ 0.2
